Each structure is given as a SMILES string. Whole data set: some 3,600 compounds, median “viability index relative to DMSO control” near 0.81, cut for the lowest 2% near 0.13. The list shows a part of the results.
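Further: 384-well serum-free SaLSSA: MitoTracker Red CMXRos staining with saponin lysis, high-content imaging, treated-well particle count divided by plate-mean count of DMSO wells.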

The test system of this test is Plasmodium falciparum NF54 stage V gametocytes. Description: viability index relative to DMSO control (fraction); higher = less gametocyte killing. To be noted: 1.25 µM, incubation time: 72 h.
The compound `CN(C)CC(O)Cn1c2ccccc2c2ccccc21` (configuration not stated) yielded a viability index of 1.24. As for `Cc1ccnc(Nc2nc(-c3c(C)nc4sccn34)cs2)c1`, the figure is 0.822; as for `COc1cccc(OC)c1C(=O)Oc1cccc2ccc(C)nc12`, 0.706; as for `COc1ccc2nc(-c3ccccc3)cc(O)c2c1`, 0.712. The compound `CCOC(=O)c1c[nH]c2ccc(C)cc2c1=O` yielded a viability index of 0.642. In turn, `CC(C)(C)c1ccc(-c2c[n+](-c3ccccc3)c3n2CCCS3)cc1` had a viability index of 0.945. As for `Cc1cccc(NC(=O)c2cc(Cl)nc3ccccc23)c1`, the viability index was found to be 0.878. The compound `Cn1c(C(=O)c2cccc3ccccc23)nc2ccccc21` gave a viability index of 1.26. The compound `O=C(Nc1cccc(Cl)c1)Nc1cc(C(F)(F)F)cc(C(F)(F)F)c1` registered a viability index of 0.99. `Cc1nn(CC(O)Cn2c3ccc(Br)cc3c3cc(Br)ccc32)c(C)c1Br` (configuration not stated) registered a viability index of 0.634. `CCCOc1ccc(C2Sc3ccccc3N=C3C2=C(O)c2ccccc23)cc1OC` (configuration not stated): the viability index came out at 0.699. In turn, `Fc1ccc(CN2CCc3nc(N4CCCCC4)sc3C2)cc1F` had a viability index of 0.923. `COc1ccccc1/C=C/CN1CCN(c2ccccn2)CC1` showed a viability index of 1.15. `COc1cc(C=NNC(=O)c2ccc(C(=O)NN=Cc3ccc(O)c(OC)c3)cc2)ccc1O` came in with a viability index of 0.727. The compound `O=C(Nc1cc(C(=O)N2CCC(Cc3ccccc3)CC2)ccc1N1CC2CC(C1)c1cccc(=O)n1C2)c1cccs1` (configuration not stated) displayed a viability index of 0.336.

In turn, `COc1ccc(CN(C=O)/C=C2\Sc3ccccc3C2=O)cc1OC` showed a viability index of 0.996.

As to `Cc1cc(C)nc(NNc2c([N+](=O)[O-])cccc2[N+](=O)[O-])n1`, the viability index was determined as 0.358.

For `CCN(CC)S(=O)(=O)c1ccc2[nH]cc(C(=O)NCCCN3CCN(c4ccc(OC)cc4)CC3)c(=O)c2c1`, the viability index worked out at 1.14. In turn, `COc1ccc(C2CC(=O)C3=C(C2)NC(C)=C(C(=O)OC2CCCC2)C3c2cccc(Cl)c2)cc1OC` (configuration not stated) returned a viability index of 0.734. Regarding `CCOc1ccc(C(=O)CN2C(=O)c3ccccc3OC(C(C)C)C2=O)cc1[N+](=O)[O-]` (configuration not stated), the viability index is 0.744. As for `O=C(Nc1ccc(-c2nc3ccc(NC(=O)c4ccc(Br)cc4)cc3[nH]2)cc1)c1ccc(Br)cc1`, the figure is 0.899; as for `O=C(C[n+]1ccc(C=NO)cc1)NC12CC3CC(CC(C3)C1)C2`, 1.33; as for `CC1=C(C(=O)OC(C)C)C(c2ccccc2Cl)C2=C(CC(c3ccccc3)CC2=O)N1` (configuration not stated), 0.713. `Cc1ccccc1N1C(=O)N(c2ccccc2)C2CS(=O)(=O)CC21` (configuration not stated) showed a viability index of 1.03. In turn, `COc1ccc(C(=O)Nc2nonc2-c2ccc(OC)c(OC)c2)cc1Cl` showed a viability index of 0.767. `Cc1ccnc(Nc2nc(-c3ccccn3)cs2)c1` registered a viability index of 0.0192. In turn, `O=C(/C=C/c1ccc(-c2cccc([N+](=O)[O-])c2)o1)Nc1nccs1` yielded a viability index of 0.808. In the case of `CCN(CC)CCCC(C)Nc1cc(C=Cc2ccccc2Cl)nc2cc(Cl)ccc12` (configuration not stated), the viability index turned out to be 0.246. `COc1cc(C=C(C#N)c2nc3ccccc3[nH]2)ccc1OCc1ccccc1` registered a viability index of 0.815. `CC(=O)Nc1ccc(S(=O)(=O)NC2C(C)(C)C3CC[C@]2(C)C3)cc1` (some centres not stated) came in with a viability index of 0.772.

The compound `O=C(Nc1ccc(-n2cnnn2)cc1)C1CCN(Cc2cc3ccccc3o2)CC1` came in with a viability index of 0.942. Take `CCOC(=O)c1c(C)[nH]c(C)c1S(=O)(=O)N1CCCC(C(=O)N2CCN(c3cccc(C)c3C)CC2)C1` (configuration not stated): the viability index worked out at 0.948.

As to `COc1ccc2nc(C)cc(Nc3cccc(O)c3)c2c1`, the viability index was 0.659. Regarding `Nc1c(C(=O)Nc2ccc(Br)cc2)sc2nc3c(c(-c4cccs4)c12)CCC3`, the viability index worked out at 0.859. With `N=c1c2c(n(Cc3ccc(F)cc3)c3c1CCC3)CCC2`, the viability index was 0.763.

`CCN1C(=Cc2cccc[n+]2C)C=Cc2cc(C)ccc21` returned a viability index of 1.19. As to `Cc1nc2cc(-c3ccc(I)cc3)nn2c(O)c1C`, the viability index worked out at 0.654. Regarding `Brc1cccc(CNC2CCN(CCc3ccccc3)CC2)c1`, the viability index came out at 0.971. Compound `Cc1ccccc1Cc1c(C)nc2c(C#N)c(C)nn2c1C` registered a viability index of 0.714. As for `CC(=O)N(C1=C(N2CCCC2)C(=O)c2ccccc2C1=O)c1cccc(F)c1`, the figure is 1; as for `COc1cncc(-c2cncc(-c3ccc(Oc4ccccc4)cc3)n2)c1`, 0.899. `CCCn1nc(Oc2nc(NCC)cc(OC)n2)ccc1=O`: the viability index was 0.859.

Take `CCOC(=O)C1=C(CC)NC2=C(C(=O)CCC2)C1c1ccc(OC)c(Br)c1` (configuration not stated): the viability index amounted to 0.555.

With `COc1ccc(-n2c(CNC(=O)c3cccc4ccccc34)n[nH]c2=S)cc1`, the viability index stood at 0.758. As to `CC(C)(C)C1=NN(CC(=O)NCCc2c[nH]cn2)C(=O)c2cc3ccccc3n2C1`, the viability index is 0.523.

`CN1CCN(c2nc(NCCNc3ccc([N+](=O)[O-])cc3)c3ccccc3n2)CC1` displayed a viability index of 0.776. `Nc1nc(N)nc(C(c2ccccc2)c2ccccc2)n1` returned a viability index of 1.

Regarding `Cc1nc(-c2ccc[n+](C)c2)sc1C(=O)C=Cc1ccc(Cl)cc1`, the viability index stood at 0.767. As for `CCCOC(=O)C1=C(C)NC2=C(C(=O)CC(c3ccccc3)C2)C1c1ccc(Cl)cc1Cl` (configuration not stated), the figure is 0.604; as for `CCOC(=O)c1sc(NC(=O)C(C)Sc2nnc(CNC(=O)c3ccc(OC)cc3)n2-c2ccccc2OC)c(C(=O)OCC)c1C` (configuration not stated), 0.751; as for `S=C(NN=Cc1ccccn1)NC1CC2C=CC1C2` (configuration not stated), 0.0456. `COc1ccc(CCNC(=O)CN(c2ccc(OC)c(OC)c2)S(=O)(=O)c2ccc(C)cc2)cc1OC`: the viability index was 1.03. Compound `O=C(CN1CCN(C(=O)c2ccco2)CC1)Nc1cc(C(F)(F)F)ccc1Cl` registered a viability index of 1.11. For `O=C1C(N2CCCCC2)=C(N2CCCCC2)C(=O)c2ccccc21` the value was 0.839. As to `COC(=O)C1=C(C)NC(=Cc2cc(C)n(-c3cc(Cl)ccc3Cl)c2C)C1=O`, the viability index came to 0.514.

Take `Cc1ccc(C(=O)CSc2nc(N)c(C#N)c(-c3cccs3)c2C#N)cc1`: the viability index was found to be 1.07. Consider `Cc1ccc2oc(=O)c3cnn(CC(=O)Nc4ccc(F)cc4Cl)c3c2c1`, for which the viability index was 0.783. For `Clc1nc(Nc2ccccc2)nc(N2CCCCC2)n1` the value was 0.681. Compound `CCCCOc1ccc(C(=O)Nc2cc(C)on2)cc1` had a viability index of 0.637. `CCc1nc2nc(C)cc(Nc3ccc(C)c(F)c3)n2n1` came in with a viability index of 0.785.

`CCOC(=O)c1cnc2c(ccc3ccccc32)c1Nc1ccc(NC(C)=O)cc1` came in with a viability index of 0.98.

With `COc1cc(OC)cc(C(=O)NCC2Cc3cc(Cl)cc(-c4ccncc4)c3O2)c1` (configuration not stated), the viability index was determined as 1.07.

Consider `CCOc1cc(C2CC(=O)NC3=C2C(=O)CC(C)(C)C3)ccc1OC(C)C` (configuration not stated), for which the viability index was 0.598. `Cc1ncc([N+](=O)[O-])n1CCOC(=O)NC(Nc1ccc(Br)cc1)C(Cl)(Cl)Cl` (configuration not stated) came in with a viability index of 0.605. In turn, `Cc1ccc2c(c1)c(-c1ccccc1)c(-c1ccccc1)n2CC(O)CN1CCN(Cc2ccccc2)CC1` (configuration not stated) had a viability index of 0.535. For `Cc1ccc(-n2c(-c3ccccc3)cc(C=NNC(=O)c3cccc(-n4c(C)ccc4C)c3)c2-c2ccccc2)cc1` the value was 0.83; for `O=C1CN(C(=O)c2cc([N+](=O)[O-])c(N3CCCCC3)c([N+](=O)[O-])c2N2CCCCC2)c2ccccc2N1`, 0.591.

Compound `COc1nc(Nc2ccc(C(C)C)cc2)nc(OC)n1` came in with a viability index of 0.964.

Turning to `CNC1=C(N(Cc2ccc(Cl)c(Cl)c2)C(C)=O)C(=O)c2ccccc2C1=O`, the viability index was found to be 0. As for `O=C(Nc1cc(Cl)ccc1O)c1cnn2c(C(F)(F)F)cc(-c3ccc(F)cc3)nc12`, the figure is 0.859; as for `Cc1c2cnn(CC(=O)O)c(=O)c2c(C)n1Cc1cccc(Cl)c1`, 1.24. Turning to `Cc1cccc(C2c3[nH]c4ccccc4c3CCN2C(=O)CCCN2CCCCC2=O)n1` (configuration not stated), the viability index was determined as 0.962. `Cc1cc(NC(=O)C=Cc2ccccc2Cl)ccc1Br` had a viability index of 0.817. As for `CC1CCCN(c2ccc(C(=O)NC3CC3)cc2[N+](=O)[O-])C1` (configuration not stated), the figure is 0.805; as for `CCN(CC)c1ccc(N=Cc2ccccc2[N+](=O)[O-])cc1`, 0.588; as for `CCC1(C)CC(CCNCc2ccccc2O)(c2ccccc2OC)CCO1` (configuration not stated), 0.812. Consider `Cc1cccc(C)c1OCC(=O)Nc1ccccc1O`, for which the viability index came out at 1.01. `O=C1C(NC2CCCC2)=C(N2CCCCC2)C(=O)c2ccccc21`: the viability index stood at 0.236. In turn, `OC(CN1CCOCC1)Cn1c2ccc(Br)cc2c2cc(Br)ccc21` (configuration not stated) came in with a viability index of 1.05. For the compound `COc1cc(OC)cc(-n2c(=O)c3sccc3n(CC(=O)c3ccc(F)cc3)c2=O)c1`, the viability index came out at 0.964.

As for `N#Cc1cc(-c2cccc(C(F)(F)F)c2)cn(Cc2c(Cl)cccc2Cl)c1=O`, the viability index turned out to be 0.73. `CCCCc1c(CCC)c(=N)c2ccccc2n1C` came in with a viability index of 0.949.

`C=CCNC(=O)c1cc2c(=O)n3cccc(C)c3nc2n(CCc2ccccc2)c1=N`: the viability index was 1.02.

`COc1ccc(C=C2SC(=N)N(c3ccccc3OC)C2=O)cc1`: the viability index came to 0.55.

In turn, `Cn1nc(C(F)(F)F)c(-c2ccc(F)cc2)c1NC(=O)Nc1ccc(F)cc1F` came in with a viability index of 1.07. For `c1ccc(-c2ccccc2OCCNCCN2CCOCC2)cc1` the value was 0.644; for `O=C(CSc1ccc2nnc(-c3cccs3)n2n1)Nc1ccccc1`, 1.1; for `CCc1c(C)c(C#N)c2nc3ccccc3n2c1Nc1ccc(C)c(Cl)c1`, 0.681.

In turn, `CCN(CC)CCN1C(=O)c2ccccc2NC1c1ccc(C)cc1` (configuration not stated) returned a viability index of 0.672.

As to `Cc1ccc(O)c(NC(=O)c2cnn3c(C(F)(F)F)cc(-c4ccccc4)nc23)c1`, the viability index was determined as 0.665. `CCOC(=O)c1c(NC(C)=O)sc2c1CCN(C(C)C)C2` returned a viability index of 0.661. `CN(C)c1cc[n+](CC(=O)c2ccc(Br)cc2)cc1`: the viability index was 0.816.
